Hit rate of the full screen: of about 420,000 compounds, about 64,000 (15%) were called active. The inconclusive results got no clear call from the source; some entries with a clear call stand among them for comparison. Calls follow the shape of the dose curve; as a rule, active = well fitted inhibition curve with a large enough effect; inconclusive = small, poorly fitted or top-dose-only effect; inactive = flat fitted curve, though single readings scatter. Potencies of inconclusive entries are left out as doubtful fits.
experiment: qHTS for Inhibitors of human tyrosyl-DNA phosphodiesterase 1 (TDP1): qHTS in cells in absence of CPT; conditions: DT40 Tdp1-/- hTDP1 cells, no CPT, ATP luminescence, 48 h; activity change, negative = growth inhibition: at 46.2 µM (top of the series); also: nearly all actives have a fitted effect of over 55% in size
Summary of the method: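 No-CPT arm: Tdp1-/-;hTDP1 DT40 cells (400/well) plus compounds, incubated ≥48 hr at 37 °C. Readout CellTiter-Glo luminescence.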
% is scaled to controls: 0 for no effect and ±100 for the full control effect; potency is read from the fitted curve at half-maximal effect; tags tell the direction and shape of the fitted curve.

| SMILES | Potency | activity change, negative = growth inhibition |
| --- | --- | --- |
| CCOC(=O)CC1C(=O)NCCN1C(=O)c1ccc(Cl)c(Cl)c1 (stereo unspecified) | inactive | – |
| COc1cc(OC)c2c(c1Cl)OC1(C2=O)C(O)=CC(=O)CC1C (stereo unspecified) | inactive | – |
| Cc1ccc(C(=O)COC(=O)CCNS(=O)(=O)c2ccccc2F)cc1 | inactive | – |
| Cc1sc2ncn(CC(=O)Nc3ccc(C(F)(F)F)cc3)c(=O)c2c1S(=O)(=O)N1CCN(C)CC1 | active: 1.3 µM | – |
| CC1CCCN(C(=O)CCNS(=O)(=O)c2ccc3c(c2)oc(=O)n3C)C1 (stereo unspecified) | inactive | – |
| CCOc1ccc(OCC(=O)c2c(O)c3ccccc3oc2=O)cc1 | inconclusive [inhibitor, partial curve, poor fit] | – |
| O=C1c2ccccc2C(Nc2cccnc2)N1Cc1ccccc1Cl (stereo unspecified) | active: 20.6 µM | – |
| CN(CCc1ccccc1)C(c1cc2ccccc2o1)c1nnnn1C(C)(C)C (stereo unspecified) | inconclusive [inhibitor, single point] | – |
| O=C(NC(NNc1ccc([N+](=O)[O-])cc1)(C(F)(F)F)C(F)(F)F)c1ccc(Cl)cc1 | active: 29.1 µM | – |
| Cc1cccc(NC(=O)CSc2nnc3c4ccccc4n(C)c3n2)c1 | inactive | – |
| CCO[C@H]1[C@H](NC(=O)c2cccnc2)c2ccccc2C12CCN(C(=O)c1ccoc1)CC2 | inconclusive [inhibitor, partial curve, poor fit] | – |
| Cc1cccc2c(C(O)c3c[nH]c4c(C)cccc34)c[nH]c12 | inconclusive [inhibitor, single point] | – |
| Cc1cc(C)n(-c2cc(N3CCN(S(=O)(=O)c4ccc5ccccc5c4)CC3)ccc2[N+](=O)[O-])n1 | active: 9.2 µM | – |
| CC(=O)c1ccc(OCCCC(=O)NNC(=O)c2ccccn2)cc1 | active: 14.6 µM | – |
| CC(C)(C)c1ccc(/C=N/OCC(=O)NCc2ccccc2)cc1 | inconclusive [inhibitor, single point] | – |
| COc1ccc(S(=O)(=O)N(C)C)cc1NC(=O)COC(=O)c1nc2nccc(C)n2n1 | inactive | – |
| O=C(Nc1cccc(-c2cn3c(n2)SCC3)c1)c1ccc2c(c1)OCO2 | inconclusive [inhibitor, single point] | – |
| Nc1ncnc2c1ncn2[C@@H]1O[C@H](CNCc2ccccc2OC2OC(CO)C(O)C(O)C2O)[C@@H](O)[C@H]1O (stereo partly specified) | inactive | – |
| Cc1ccc(NC(=O)c2cccnc2C(=O)Nc2ccc(C)cc2)cc1 | inconclusive [inhibitor, single point] | – |
| CCS(=O)(=O)Nc1ccc(-c2cc(-c3ccccc3)c3cc(C)ccc3n2)cc1 | inconclusive [inhibitor, single point] | – |
| COCCCNC(=S)N1CCN(c2nc(-c3ccc(F)cc3)cs2)CC1 | inconclusive [inhibitor, single point] | – |
| Nc1nnnn1/N=C/c1ccccn1 | inactive | – |
| Cc1cc(C)cc(NCCC#N)c1 | inactive | – |

| SMILES | Potency | activity change, negative = growth inhibition |
| --- | --- | --- |
| Cn1nc(C(=O)Nc2ccc(-n3cnnn3)cc2)c2ccccc2c1=O | inactive | – |
| COc1cc(CNc2ccc(C(=O)O)cc2)cc(Br)c1OCC(=O)NC(C)(C)C | inconclusive [inhibitor, single point] | – |
| O=C(CC1C[C@H](C(=O)N2CCCCC2)[C@@]2(CCc3ccccc3)c3[nH]c4ccccc4c3CCN2C1=O)NCCC1=CCCCC1 (stereo partly specified) | inconclusive [inhibitor, single point] | – |
| Cc1cc(C)cc(OCCSc2nc(-c3ccc(C(C)(C)C)cc3)nc3cc(=O)[nH]n23)c1 | inconclusive [inhibitor, single point] | – |
| COC(=O)c1c(NC(=O)COc2ccc(OC)cc2)sc2c1CCC(C)C2 (stereo unspecified) | active: 7.31 µM | – |
| O=C(CCC(F)(F)F)N1CCCC(N2CCN(c3cccc(Cl)c3)CC2)C1 (stereo unspecified) | inconclusive [inhibitor, single point] | – |
| Cn1c(CSCc2ccc(Cl)cc2)nnc1SCC(=O)Nc1nc2ccccc2s1 | inconclusive [inhibitor, partial curve] | – |
| Cc1ccc(C(=O)NC2(O)C(=O)c3ccccc3C2=O)cc1C | inconclusive [inhibitor, single point] | – |
| COCn1c(-c2ccc(OC)cc2)nc2ccccc21 | inactive | – |
| COc1cc(NC(=O)CSc2ccc(-c3sc(-c4ccccc4)nc3C)nn2)cc(OC)c1 | active: 16.4 µM | – |
| CCCc1cc(=O)[nH]c2nnc(SCCC(C)C)n12 | inactive | – |
| Cc1cc2c(cc1C)N[C@]1(C[C@H]3CCC(=O)N4CC[C@@H](C1)[C@@H]34)C(=Nc1ccccc1C)N2 | inconclusive [inhibitor, single point] | – |
| Fc1cccc(Cc2noc(CN3CCSCC3)n2)c1 | inactive | – |
| C=C(C)C(=O)O[C@H]1C/C(C)=C\C(=O)/C=C(\C)[C@H](O)[C@@H]2OC(=O)C(=C)[C@@H]21 | active: 1.16 µM | – |
| Oc1c(Br)cc(C=Nc2ccc3nc(-c4ccccc4)[nH]c3c2)c(O)c1Br | active: 14.6 µM | – |
| Cc1ccc2c(N)c(C(=O)N(c3ccccc3)c3ccccc3)sc2n1 | inconclusive [inhibitor, partial curve, poor fit] | – |
| O=C(Cn1nnc(-c2ccccc2)n1)Nc1cccc(S(=O)(=O)N2CCOCC2)c1 | active: 11.6 µM | – |
| CCOC(=O)CN1C(=O)C(O)(CC(=O)c2cccc(OC)c2)c2ccccc21 (stereo unspecified) | active: 16.4 µM | – |
| CC1(C(=O)NS(=O)(=O)c2ccc(Cl)s2)CCN1C(=O)C1(c2ccccc2)CCCC1 (stereo unspecified) | inconclusive [inhibitor, single point] | – |
| CCc1cc(C(=O)N2CCCC(CCC(=O)N3CCN(c4ccccn4)CC3)C2)no1 (stereo unspecified) | – | inconclusive: -32.1% [inhibitor] |
| CC1(C)CC(=O)C(C=NCC2CCN(C(=S)Nc3cccc(Cl)c3)CC2)=C(O)C1 | inconclusive [inhibitor, single point] | – |
| COc1ccc2[nH]c(=O)c(CNc3ccc(C)cc3C)cc2c1 | active: 20.6 µM | – |
| Cn1[nH]c2c(c1=O)[C@H](c1ccc(F)cc1)O[C@H](CCc1ccccc1)C2 | inconclusive [inhibitor, single point] | – |

— PubChem BioAssay AID686978 (National Center for Advancing Translational Sciences (NCATS), 2013)
